In the experiment the target is T1, Human VEGF-C protein (human, UniProt P49767 112-227, limits assumed).
T1 construct: Treated as one molecule; also called VEFG-C
T1 sequence (looked up): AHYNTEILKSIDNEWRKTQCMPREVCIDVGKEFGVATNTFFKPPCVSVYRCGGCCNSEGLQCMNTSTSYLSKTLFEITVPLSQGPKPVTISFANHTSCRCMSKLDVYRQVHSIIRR
Briefly: SPR (Biacore T200), binder captured on Protein A chip, VEGF as analyte, multi-cycle.

For orientation: Kd means the equilibrium constant for the complex coming apart. A lower Kd goes with tighter binding.

B1: PR1163 (heavy chain H: R2D2 (C162V)-R2D3-Fc-linker-VH-CH1; light chain L: VL-CL) (Fc fusion)
heavy: SPFIASVSDQHGVVYITENKNKTVVIPCLGSISNLNVSLVARYPEKRFVPDGNRISWDSKKGFTIPSYMISYAGMVFCEAKINDESYQSIMYIVVVVGYRIYDVVLSPSHGIELSVGEKLVLNCTARTELNVGIDFNWEYPSSKHQHKKLVNRDLKTQSGSEMKKFLSTLTIDGVTRSDQGLYTCAASSGLMTKKNSTFVRVHEK[human IgG1 Fc with changes not printed]GGGGSGGGGSGGGGSGGGGSEVQLVESGGGLVQPGGSLRLSCAASGYTFTNYGMNWVRQAPGKGLEWVGWINTYTGEPTYAADFKRRFTFSLDTSKSTAYLQMNSLRAEDTAVYYCAKYPHYYGSSHWYFDVWGQGTLVTVSSASTKGPSVFPLAPSSKSTSGGTAALGCLVKDYFPEPVTVSWNSGALTSGVHTFPAVLQSSGLYSLSSVVTVPSSSLGTQTYICNVNHKPSNTKVDKKVEPKSC
light: DIQMTQSPSSLSASVGDRVTITCSASQDISNYLNWYQQKPGKAPKVLIYFTSSLHSGVPSRFSGSGSGTDFTLTISSLQPEDFATYYCQQYSTVPWTFGQGTKVEIKRTVAAPSVFIFPPSDEQLKSGTASVVCLLNNFYPREAKVQWKVDNALQSGNSQESVTEQDSKDSTYSLSSTLTLSKADYEKHKVYACEVTHQGLSSPVTKSFNRGEC
B1 had a Kd of 0.0134 nM.

B2: PR1186 (heavy chain H: R1D2-R2D3-R2D2 (C162V/Y221S/R222K)-R2D3 (N274F/S283T)-Fc-linker-VH-CH1; light chain L: VL-CL) (Fc fusion)
heavy: SPFIASVSDQHGVVYITENKNKTVVIPCLGSISNLNVSLVARYPEKRFVPDGNRISWDSKKGFTIPSYMISYAGMVFCEAKINDESYQSIMYIVVVVGSKIYDVVLSPSHGIELSVGEKLVLNCTARTELNVGIDFNWEYPSSKHQHKKLVFRDLKTQSGTEMKKFLSTLTIDGVTRSDQGLYTCAASSGLMTKKNSTFVRVHEK[human IgG1 Fc with changes not printed]GGGGSGGGGSGGGGSGGGGSEVQLVESGGGLVQPGGSLRLSCAASGYTFTNYGMNWVRQAPGKGLEWVGWINTYTGEPTYAADFKRRFTFSLDTSKSTAYLQMNSLRAEDTAVYYCAKYPHYYGSSHWYFDVWGQGTLVTVSSASTKGPSVFPLAPSSKSTSGGTAALGCLVKDYFPEPVTVSWNSGALTSGVHTFPAVLQSSGLYSLSSVVTVPSSSLGTQTYICNVNHKPSNTKVDKKVEPKSC
light: B1 light
In turn, B2 showed a Kd of 0.0123 nM.

Source of the values: US20260008835A1 (SHANGHAI REGENELEAD THERAPIES, published 2026).
